Test results published in PubChem BioAssay (Tox21).
“And” between values parts separate entries of the source, which are not always exact repeats. Identical values can stand only once. The shares of active, inactive and inconclusive entries below differ from those in the screen. For part of these data: A potency beside an inconclusive call is a rough fit, not a confirmed value. The source made the active and inactive calls. Unless noted, the call rests on the fitted dose curve; in most records, active means well fitted curve in the direction sought with a large enough effect in the repeat runs; inconclusive means weak or mixed curves; inactive means no such curve, though single readings can be large; an effect the other way counts as inactive or inconclusive.

Assays:
[1] = qHTS assay to identify small molecule that activate the aryl hydrocarbon receptor (AhR) signaling pathway - cell viability counter screen (AID 743086); further: potency means the concentration at half of the fitted maximal effect; nearly all actives have a fitted effect of over 45% in size
How it was run: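 HepG2-AhR-luc (HG2L7.5c1) cells, 4000/well, treated 24 h at 37 C with compound; viability measured as CellTiter-Fluor fluorescence after 30 min in the same wells as the luciferase read.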

[2] = target: Peroxisome proliferator-activated receptor gamma (Homo sapiens) (UniProt P37231); test: qHTS assay to identify small molecule agonists of the peroxisome proliferator-activated receptor gamma (PPARg) signaling pathway (AID 743094; active means well fitted activation curve with a large enough effect in the signal ratio in the repeat runs, not every such curve was filed as active; inconclusive means weak or mixed curves, or effect the other way; inactive means no such curve, though single readings can be large or run the other way; the % refers to the signal ratio; further: on the % scale 0 is the no-effect control and ±100 the full control effect); settings: HEK293H PPARg-UAS-bla, beta-lactamase FRET ratio, 17 h; activation: at 57 µM (top of the series) unless noted
How it was run: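 Agonist activity was taken from a beta-lactamase reporter (FRET substrate, 1 h at room temperature) in HEK293H cells carrying a PPARg UAS-bla construct. Compounds in DMSO were incubated 17 h at 37C after a 5 h cell pre-incubation.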

[3] = target: Peroxisome proliferator-activated receptor gamma (Homo sapiens) (UniProt P37231); test: qHTS assay to identify small molecule antagonists of the peroxisome proliferator-activated receptor gamma (PPARg) signaling pathway (AID 743191; calls by dose curve; further: potency means the concentration at half of the fitted maximal effect; nearly all actives have a fitted effect of over 30% in size); settings: HEK293H PPARg-UAS-bla, beta-lactamase ratio, antagonist, 17 h; ratio activity, negative = inhibition: at 62.6 µM (top of the series) unless noted
How it was run: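 GeneBLAzer PPARg UAS-bla HEK293H cells, 5 h post-plating, exposed to compounds 17 h at 37C. LiveBLAzer B/G FRET substrate added for 1 h at room temperature; beta-lactamase reporter read by fluorescence intensity.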

[4] = qHTS assay to identify small molecule antagonists of the peroxisome proliferator-activated receptor gamma (PPARg) signaling pathway - cell viability counter screen (AID 743194); settings: PPARg-bla HEK293H viability, CellTiter-Glo luminescence, 17 h, co-treated with 50 nM rosiglitazone; activity change, negative = cytotoxicity: at 62.6 µM (top of the series) unless noted; further: nearly all actives have a fitted effect of over 55% in size; further: potency means the concentration at half of the fitted maximal effect; on activity change, negative = cytotoxicity: on the % scale 0 is the no-effect control and ±100 the full control effect
How it was run: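 Cytotoxicity counter screen in PPARg-bla HEK293H cells, same wells as reporter assay. Compounds plus 50 nM rosiglitazone (final) for 17 h at 37 C, then viability read by CellTiter-Glo luminescence.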

[5] = qHTS assay for small molecule activators of the heat shock response signaling pathway (AID 743210; active means well fitted activation curve with a large enough effect in the signal ratio in the repeat runs, with a control signal flat, not every such curve was filed as active; inconclusive means weak or mixed curves; the % refers to the signal ratio; further: potency means the concentration at half of the fitted maximal effect); settings: HeLa HSE-bla reporter, beta-lactamase ratio, 5 h; activation: at 62.6 µM (top of the series)
How it was run: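 Beta-lactamase reporter read-out: FRET substrate fluorescence after 2.5 h at RT, following 5 h compound treatment at 37 C of HeLa cells carrying HSE-driven bla reporter; quantitative HTS format.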

[6] = target: Peroxisome proliferator-activated receptor delta (Homo sapiens) (UniProt Q03181); test: qHTS assay to identify small molecule antagonists of the peroxisome proliferator-activated receptor delta (PPARd) signaling pathway (AID 743215; active means well fitted inhibition curve with a large enough effect in the signal ratio in the repeat runs, not every such curve was filed as active; inconclusive means weak or mixed curves, or effect the other way; inactive means no such curve, though single readings can be large or run the other way; the % refers to the signal ratio;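 further: cells stimulated with agonist L165041 at 300 nM final during compound exposure; potency means the concentration at half of the fitted maximal effect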); settings: HEK293H PPARd-UAS-bla, beta-lactamase FRET ratio, antagonist, 17 h; ratio activity, negative = inhibition: at 62 µM (top of the series) unless noted
How it was run: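 Agonist L165041 (300 nM final) added with compound to PPARd-bla HEK293H UAS-bla reporter cells; 17 h incubation at 37 C. Read-out: LiveBLAzer FRET substrate, 2 h at room temperature, fluorescence intensity.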

[7] = target: Bile acid receptor (Homo sapiens) (UniProt Q96RI1); test: qHTS assay to identify small molecule agonists of the farnesoid-X-receptor (FXR) signaling pathway (AID 743220; active means well fitted activation curve with a large enough effect in the signal ratio in the repeat runs, not every such curve was filed as active; inconclusive means weak or mixed curves, or effect the other way; the % refers to the signal ratio; further: on the % scale 0 is the no-effect control and ±100 the full control effect); settings: HEK293T FXR-UAS-bla, beta-lactamase FRET ratio, 16 h; activation: at 62.6 µM (top of the series) unless noted
How it was run: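 FXR-UAS-bla HEK 293T cells carrying a UAS-driven beta-lactamase reporter were plated for 5 h at 37C/5% CO2, then exposed to DMSO-dissolved Tox21 10K compounds for 16 h at 37C. A LiveBLAzer B/G FRET substrate was loaded for 2 h at room temperature before fluorescence reading.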

[8] = target: Vitamin D3 receptor (Homo sapiens) (UniProt P11473); test: qHTS assay to identify small molecule antagonists of the vitamin D receptor (VDR) signaling pathway (AID 743223; active means well fitted inhibition curve with a large enough effect in the signal ratio in the repeat runs, not every such curve was filed as active; inconclusive means weak or mixed curves, or effect the other way; inactive means no such curve, though single readings can be large or run the other way; the % refers to the signal ratio; further: potency means the concentration at half of the fitted maximal effect; on activity change, negative = inhibition: on the % scale 0 is the no-effect control and ±100 the full control effect); settings: VDR-UAS-bla HEK293T, beta-lactamase FRET ratio, 16 h; activity change, negative = inhibition: at 61 µM (top of the series) unless noted
How it was run: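 Antagonist mode: compound added to VDR-bla cells alongside agonist 1alpha,25-dihydroxyvitamin D3 (3 nM final), incubation 16 h at 37C. Read-out is LiveBLAzer FRET fluorescence, 2 h at room temperature.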

[9] = qHTS assay for small molecule agonists of the antioxidant response element (ARE) signaling pathway (AID 743202; active means well fitted activation curve with a large enough effect in the signal ratio in the repeat runs, not every such curve was filed as active; inconclusive means weak or mixed curves, or effect the other way; inactive means no such curve, though single readings can be large or run the other way; the % refers to the signal ratio; further: potency means the concentration at half of the fitted maximal effect); settings: HepG2 ARE-bla reporter, beta-lactamase FRET, 16 h; activation: at 73.3 µM (top of the series) unless noted
How it was run: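 HepG2 ARE-bla reporter line, 2,000 cells/well; 5 h preincubation 37 C/5% CO2; compound (DMSO) 16 h 37 C; B/G FRET substrate 2 h RT; fluorescence intensity.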

[10] = qHTS assay for small molecule agonists of the antioxidant response element (ARE) signaling pathway - cell viability counter screen (AID 743203; calls by dose curve; further: potency means the concentration at half of the fitted maximal effect; nearly all actives have a fitted effect of over 55% in size); settings: ARE-bla HepG2 viability, CellTiter-Glo luminescence, 16 h; viability change, negative = cytotoxic: at 73.3 µM (top of the series)
How it was run: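 Viability counter screen: CellTiter-Glo luminescence, read after 30 min at room temperature, in ARE-bla HepG2 wells. Compound exposure lasted 16 h at 37C/5% CO2, following a 5 h pre-incubation of the cells after plating.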

[11] = qHTS assay to identify small molecule agonists of the peroxisome proliferator-activated receptor delta (PPARd) signaling pathway - cell viability counter screen (AID 743211); settings: PPARd-bla HEK293H viability, CellTiter-Glo luminescence, 17 h; activity change, negative = cytotoxicity: at 62.6 µM (top of the series); further: potency means the concentration at half of the fitted maximal effect; nearly all actives have a fitted effect of over 55% in size
How it was run: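 Viability was measured as CellTiter-Glo luminescence (30 min, room temperature) in the same wells as the beta-lactamase readout. GeneBLAzer PPARd UAS-bla HEK293H cells received compound after 5 h plating and were incubated 17 h at 37 C.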

[12] = target: Peroxisome proliferator-activated receptor delta (Homo sapiens) (UniProt Q03181); test: qHTS assay to identify small molecule agonists of the peroxisome proliferator-activated receptor delta (PPARd) signaling pathway (AID 743212; calls by dose curve; further: potency means the concentration at half of the fitted maximal effect); settings: HEK293H PPARd-UAS-bla, beta-lactamase FRET ratio, 17 h; activation: at 62.6 µM (top of the series) unless noted
How it was run: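 Read-out: beta-lactamase FRET fluorescence after 2 h room-temperature incubation with LiveBLAzer B/G substrate. Cells were HEK293H carrying a UAS-bla reporter for PPARd, treated at 37 C with DMSO-dissolved compounds.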

[13] = qHTS assay to identify small molecule antagonists of the peroxisome proliferator-activated receptor delta (PPARd) signaling pathway - cell viability counter screen (AID 743213); settings: PPARd-bla HEK293H viability, CellTiter-Glo luminescence, 17 h; viability change, negative = cytotoxic: at 62 µM (top of the series) unless noted; further: potency means the concentration at half of the fitted maximal effect; nearly all actives have a fitted effect of over 50% in size
How it was run: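 CellTiter-Glo was added to PPARd-bla HEK293H wells following 17 h compound treatment in the presence of 300 nM L165041. Luminescence was recorded after 30 min at room temperature.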

[14] = target: Bile acid receptor (Homo sapiens) (UniProt Q96RI1); test: qHTS assay to identify small molecule antagonists of the farnesoid-X-receptor (FXR) signaling pathway (AID 743217; active means well fitted inhibition curve with a large enough effect in the signal ratio in the repeat runs, not every such curve was filed as active; inconclusive means weak or mixed curves, or effect the other way; inactive means no such curve, though single readings can be large or run the other way; the % refers to the signal ratio; further: potency means the concentration at half of the fitted maximal effect); settings: HEK293T FXR-UAS-bla, beta-lactamase ratio, CDCA-stimulated, 16 h; activity change, negative = inhibition: at 62.6 µM (top of the series) unless noted
How it was run: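 Antagonist mode: chenodeoxycholic acid at 50 uM final stimulates a UAS-driven beta-lactamase reporter in HEK 293T FXR-bla cells during 16 h, 37C compound exposure. Read-out is FRET substrate fluorescence after 2 h at room temperature.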

[15] = qHTS assay to identify small molecule agonists of the farnesoid-X-receptor (FXR) signaling pathway - cell viability counter screen (AID 743218); settings: FXR-bla HEK293T viability, CellTiter-Glo luminescence, 16 h; viability change, negative = cytotoxic: at 62.6 µM (top of the series) unless noted; further: potency means the concentration at half of the fitted maximal effect; nearly all actives have a fitted effect of over 45% in size
How it was run: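 Viability counter screen in the same wells: CellTiter-Glo luminescence, 30 min room-temperature incubation, measured after the beta-lactamase read. Cells were GeneBLAzer FXR-UAS-bla HEK 293T, compound-treated 16 h at 37C.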

[16] = qHTS assay to identify small molecule antagonists of the farnesoid-X-receptor (FXR) signaling pathway - cell viability counter screen (AID 743221; active means well fitted cell-killing curve with a large enough effect in the repeat runs, not every such curve was filed as active; inconclusive means weak or mixed curves, or effect the other way; inactive means no such curve, though single readings can be large or run the other way; further: potency means the concentration at half of the fitted maximal effect; nearly all actives have a fitted effect of over 50% in size); settings: FXR-bla HEK293T viability, CellTiter-Glo luminescence, 16 h; activity change, negative = cytotoxicity: at 62.6 µM (top of the series)
How it was run: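 Cytotoxicity counter screen run in the FXR-bla reporter wells: HEK 293T cells exposed to compound with 50 uM (final) chenodeoxycholic acid for 16 h, 37 C, then viability measured by CellTiter-Glo luminescence after 30 min, room temperature.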

[17] = target: Vitamin D3 receptor (Homo sapiens) (UniProt P11473); test: qHTS assay to identify small molecule agonists of the vitamin D receptor (VDR) signaling pathway (AID 743222; calls by dose curve; further: potency means the concentration at half of the fitted maximal effect); settings: HEK293T VDR-UAS-bla, beta-lactamase FRET ratio, 16 h; activation: at 63.5 µM (top of the series) unless noted
How it was run: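 Agonist mode, beta-lactamase reporter: fluorescence from LiveBLAzer B/G FRET substrate (2 h, room temperature) read after 16 h compound treatment at 37 C of VDR-bla cells, which were pre-incubated 4 h after seeding.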

[18] = qHTS assay to identify small molecule antagonists of the vitamin D receptor (VDR) signaling pathway - cell viability counter screen (AID 743225); settings: VDR-bla HEK293T viability, CellTiter-Glo luminescence, 16 h; viability change, negative = cytotoxic: at 61 µM (top of the series) unless noted; further: potency means the concentration at half of the fitted maximal effect; nearly all actives have a fitted effect of over 50% in size
How it was run: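 Cytotoxicity counter screen read by CellTiter-Glo luminescence (30 min, room temperature) in the same wells as the VDR-bla antagonist readout. HEK 293T VDR-UAS-bla cells had 16 h at 37C with compound and 3 nM (final) 1-alpha,25-dihydroxyvitamin D3, then 2 h with FRET substrate.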

[19] = qHTS assay for small molecule activators of the heat shock response signaling pathway - cell viability counter screen (AID 743209); settings: HSE-bla HeLa viability, CellTiter-Glo luminescence, 5 h; activity change, negative = cytotoxicity: at 62.6 µM (top of the series) unless noted; further: potency means the concentration at half of the fitted maximal effect; nearly all actives have a fitted effect of over 50% in size
How it was run: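 Cytotoxicity counter screen run in the same wells as the heat-shock bla reporter assay: HeLa HSE-bla cells, 5 h compound exposure at 37 C, viability read by CellTiter-Glo luminescence.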

[20] = qHTS assay to identify small molecule agonists of the vitamin D receptor (VDR) signaling pathway - cell viability counter screen (AID 743224); settings: VDR-bla HEK293T viability, CellTiter-Glo luminescence, 16 h; activity change, negative = cytotoxicity: at 62.6 µM (top of the series) unless noted
How it was run: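 Counter screen run in the same wells as the VDR-bla reporter assay: CellTiter-Glo luminescence, 30 min at room temperature, after 16 h compound treatment at 37C of cells pre-plated for 4 h.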
Tags describe the fitted curve by direction and shape or compound fluorescence and quenching.

Chain of UniProt P11473 (P11473 whole entry, looked up): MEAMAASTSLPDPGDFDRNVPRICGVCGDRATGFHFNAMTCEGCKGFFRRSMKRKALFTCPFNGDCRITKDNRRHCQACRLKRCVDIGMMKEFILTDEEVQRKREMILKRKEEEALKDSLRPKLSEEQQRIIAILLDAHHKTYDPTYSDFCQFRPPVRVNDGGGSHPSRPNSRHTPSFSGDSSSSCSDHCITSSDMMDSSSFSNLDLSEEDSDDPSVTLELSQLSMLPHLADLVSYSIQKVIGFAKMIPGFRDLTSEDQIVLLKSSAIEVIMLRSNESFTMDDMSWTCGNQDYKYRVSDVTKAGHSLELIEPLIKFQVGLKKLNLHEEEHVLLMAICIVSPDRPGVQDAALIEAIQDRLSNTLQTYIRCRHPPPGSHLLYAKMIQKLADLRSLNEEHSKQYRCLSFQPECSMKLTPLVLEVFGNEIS
Chain of UniProt P37231 (P37231 whole entry, looked up): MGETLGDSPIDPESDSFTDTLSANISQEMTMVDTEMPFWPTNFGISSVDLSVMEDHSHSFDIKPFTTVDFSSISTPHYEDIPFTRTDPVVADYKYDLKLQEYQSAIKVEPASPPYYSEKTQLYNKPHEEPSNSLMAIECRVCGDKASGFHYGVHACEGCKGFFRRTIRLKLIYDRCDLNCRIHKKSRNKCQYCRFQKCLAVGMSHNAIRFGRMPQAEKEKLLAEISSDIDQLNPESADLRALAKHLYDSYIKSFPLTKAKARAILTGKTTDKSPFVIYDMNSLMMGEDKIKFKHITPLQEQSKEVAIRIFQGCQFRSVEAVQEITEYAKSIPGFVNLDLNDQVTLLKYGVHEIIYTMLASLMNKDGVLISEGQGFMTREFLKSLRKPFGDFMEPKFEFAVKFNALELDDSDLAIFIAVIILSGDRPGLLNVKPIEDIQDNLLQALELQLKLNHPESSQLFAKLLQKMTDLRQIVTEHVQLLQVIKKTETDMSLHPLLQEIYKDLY
Chain of UniProt Q03181 (Q03181 whole entry, looked up): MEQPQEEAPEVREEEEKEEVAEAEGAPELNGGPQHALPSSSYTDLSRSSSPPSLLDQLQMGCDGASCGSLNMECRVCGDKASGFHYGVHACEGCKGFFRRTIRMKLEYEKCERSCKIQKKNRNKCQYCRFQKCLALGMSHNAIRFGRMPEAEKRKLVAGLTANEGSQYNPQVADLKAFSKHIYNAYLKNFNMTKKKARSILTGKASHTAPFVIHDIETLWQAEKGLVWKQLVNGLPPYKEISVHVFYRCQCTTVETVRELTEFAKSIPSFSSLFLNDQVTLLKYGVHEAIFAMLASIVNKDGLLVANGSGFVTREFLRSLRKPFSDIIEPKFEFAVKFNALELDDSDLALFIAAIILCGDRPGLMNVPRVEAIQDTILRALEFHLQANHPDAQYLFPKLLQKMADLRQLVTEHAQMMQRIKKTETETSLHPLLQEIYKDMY
Chain of UniProt Q96RI1 (Q96RI1 whole entry, looked up): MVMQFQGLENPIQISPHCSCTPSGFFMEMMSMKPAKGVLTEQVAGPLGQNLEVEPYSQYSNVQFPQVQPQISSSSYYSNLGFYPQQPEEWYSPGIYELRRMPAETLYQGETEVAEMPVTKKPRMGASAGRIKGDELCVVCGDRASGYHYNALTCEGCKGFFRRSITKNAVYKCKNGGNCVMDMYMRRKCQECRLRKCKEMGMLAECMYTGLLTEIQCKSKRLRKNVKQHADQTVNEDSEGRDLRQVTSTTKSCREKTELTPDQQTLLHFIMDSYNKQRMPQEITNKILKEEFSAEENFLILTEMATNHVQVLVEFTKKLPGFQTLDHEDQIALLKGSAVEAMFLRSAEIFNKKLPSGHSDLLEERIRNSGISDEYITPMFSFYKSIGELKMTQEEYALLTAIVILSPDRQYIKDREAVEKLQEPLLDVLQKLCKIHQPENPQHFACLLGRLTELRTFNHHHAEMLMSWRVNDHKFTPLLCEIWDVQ

O=C(c1cc(O)c(O)c(O)c1)c1ccc(O)c(O)c1O
inconclusive: Potency [1] 27.3 µM [falling, partial curve] | activation [2] -11.6% and -11.2% | Potency [3] 15.5 µM [inhibitor, partial curve] and 29.8 µM [inhibitor, single point] | Potency [5] 61.7 µM and 33.5 µM [activator, single point] | Potency [6] 47.3 µM [rising, single point] | activity change, negative = inhibition [8] 7.4%
inactive: Potency [4] | Potency [7]

CC(C)(C)c1cc(/C=C2\SC(=N)NC2=O)cc(C(C)(C)C)c1O
active: Potency [4] 43.6 µM | Potency [10] 24.3 µM | Potency [11] 21.9 µM | Potency [13] 54.9 µM | Potency [15] 43.6 µM | Potency [18] 43.6 µM
inconclusive: Potency [1] 61.1 µM [falling, partial curve, poor fit] | Potency [3] 19.5 µM [inhibitor] | Potency [9] 24.3 µM [falling, full curve] | Potency [5] 52.9 µM | Potency [12] 13.8 µM [rising, partial curve] | Potency [6] 54.9 µM [inhibitor, single point] | Potency [14] 43.6 µM [rising, partial curve] | Potency [16] 54.9 µM [falling, single point] | Potency [17] 17.4 µM | Potency [8] 49 µM [rising, partial curve]

CCCN(CCC)C(=O)C(CCC(=O)OCCCN1CCN(CCOC(=O)Cc2c(C)n(C(=O)c3ccc(Cl)cc3)c3ccc(OC)cc23)CC1)NC(=O)c1ccccc1 (centres undefined)
inconclusive: activation [2] -17.5% | Potency [3] 13.3 µM [rising, partial curve, poor fit] | Potency [4] 11.9 µM [cytotoxic, full curve] | Potency [19] 3.35 µM [rising, full curve, poor fit] | Potency [5] 28.7 µM | activation [12] 0.168% | Potency [14] 23.7 µM [fluorescent] | Potency [17] 2.98 µM [rising, full curve] | activity change, negative = inhibition [8] -42.9% | Potency [20] 18.8 µM [cytotoxic, partial curve]
active: Potency [1] 21.1 µM | Potency [11] 23.7 µM | Potency [13] 21.1 µM | Potency [6] 26.6 µM | Potency [15] 16.8 µM
